Each structure is given as a SMILES string. About 14,000 (4.5%) of roughly 310,000 compounds showed an effect of 50% or more. The effect is printed as a negative number. Some of the results follow.
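Also: peak tail current of the secondary pulse compared with the same well before compound.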

This experiment deals with human ether-à-go-go-related gene (hERG) potassium channel (human, UniProt Q12809). In words: primary screen, population patch clamp on CHO cells stably expressing hERG.
Chain of human ether-à-go-go-related gene (hERG) potassium channel (Q12809 whole entry, looked up): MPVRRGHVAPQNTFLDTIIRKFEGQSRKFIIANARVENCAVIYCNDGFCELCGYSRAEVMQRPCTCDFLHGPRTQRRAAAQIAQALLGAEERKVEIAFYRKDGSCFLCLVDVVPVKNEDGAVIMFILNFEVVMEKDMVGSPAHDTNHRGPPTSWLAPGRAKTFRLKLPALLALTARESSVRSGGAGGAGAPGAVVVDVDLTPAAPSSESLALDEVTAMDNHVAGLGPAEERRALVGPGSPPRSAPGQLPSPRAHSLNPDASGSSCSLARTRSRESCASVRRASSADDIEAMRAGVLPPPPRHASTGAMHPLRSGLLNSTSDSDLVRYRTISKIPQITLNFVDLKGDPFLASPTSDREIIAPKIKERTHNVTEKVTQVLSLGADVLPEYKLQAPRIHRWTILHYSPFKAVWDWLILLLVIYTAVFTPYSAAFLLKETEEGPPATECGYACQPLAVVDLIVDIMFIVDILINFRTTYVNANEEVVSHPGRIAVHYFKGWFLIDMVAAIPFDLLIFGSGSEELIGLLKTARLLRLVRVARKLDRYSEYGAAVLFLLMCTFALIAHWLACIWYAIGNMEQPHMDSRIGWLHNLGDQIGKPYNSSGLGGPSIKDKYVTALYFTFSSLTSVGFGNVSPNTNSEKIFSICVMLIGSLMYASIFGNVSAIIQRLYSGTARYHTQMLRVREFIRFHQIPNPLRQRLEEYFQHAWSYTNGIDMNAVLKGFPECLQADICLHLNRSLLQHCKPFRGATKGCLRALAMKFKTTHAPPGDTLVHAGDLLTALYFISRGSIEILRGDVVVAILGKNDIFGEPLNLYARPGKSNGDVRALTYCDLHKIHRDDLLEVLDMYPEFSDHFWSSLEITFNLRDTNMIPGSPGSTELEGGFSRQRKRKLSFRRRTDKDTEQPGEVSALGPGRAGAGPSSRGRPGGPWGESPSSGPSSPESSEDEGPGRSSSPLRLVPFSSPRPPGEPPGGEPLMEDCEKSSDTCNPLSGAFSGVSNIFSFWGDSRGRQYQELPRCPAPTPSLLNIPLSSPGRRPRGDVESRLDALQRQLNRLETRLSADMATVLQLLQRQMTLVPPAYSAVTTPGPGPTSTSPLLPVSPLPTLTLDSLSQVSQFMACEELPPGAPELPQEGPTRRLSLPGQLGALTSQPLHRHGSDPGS
Regarding `O=C(Nc1ccccc1N1CCOCC1)c1ccccc1NS(=O)(=O)c1ccc(F)c(F)c1`, the “hERG current change (%, negative = inhibition) at 10uM” value is recorded as -26.5%. The same measure for `O=C(O)c1ccccn1`: 3.29%; for `O=C(NCC(=O)N1CCN(c2ncccn2)CC1)c1ccc(F)cc1`: -16.6%; for `CCc1cccc(C)c1NC(=O)CSc1nnc(Cc2csc(C)n2)o1`: -4.21%. The same measure for `COc1ccc(Cc2nnc(NC(=O)CSc3ccccc3)s2)cc1`: 1.93%. The same measure for `COc1ccc(-n2cc3c(-c4cccc(Br)c4)nnc(C)c3n2)cc1`: 25.8%; for `CCCCN(C(=O)C1CC(=O)N(c2ccc(OC)cc2OC)C1)c1c(N)n(CC(C)C)c(=O)[nH]c1=O` (stereo not drawn): 17.1%.

`Cn1c(CNc2nc3ccccc3n2C)nc2ccccc21`: the “hERG current change (%, negative = inhibition) at 10uM” value is listed as -15.2%. To `O=C(NC1CCCCCC1)C1C2C=CC3(CN(Cc4cccnc4)C(=O)C13)O2` (stereo not drawn) belongs -2.3%; to `O/N=C/c1ccccc1OCc1ccc(Cl)cc1`, 5.5%.

Take `Cc1ccc(NC(=O)CCN2C(=O)NC3(CCCC3)C2=O)cc1S(=O)(=O)N1CCOCC1`: the “hERG current change (%, negative = inhibition) at 10uM” value was -11.9%. The same measure for `Cc1cc(C)nc(NC2=NCC(=O)N2c2ccccc2Br)n1`: 8.96%; for `COC(=O)[C@]12C(=O)C(C)=C(O)[C@@]1(C)C(C)=CC1[C@@]34CC[C@@H](OC(C)=O)C(C)(C)C3C(C[C@]12C)OC4=O` (stereo partly drawn): 5.03%; for `CC(=O)NC12CC3CC(C1)CC(C(=O)N1CCN(S(=O)(=O)c4ccc(Cl)s4)CC1)(C3)C2`: -24.1%.

For `CCOC(=O)C(/C=N/c1cc(C)nn1-c1ccccc1)=C(\C)O`, the “hERG current change (%, negative = inhibition) at 10uM” value is 11.8%. To `Cc1ccc(S(=O)(=O)N(C)C)cc1NC(=O)C1CCC1` belongs 12.2%; to `Cc1ccn2cc(C(=O)N3CCCC(Nc4ccc(F)cc4)C3)nc2c1` (stereo not drawn), 3.02%; to `CN1CCN(c2nc3c(c(=O)n(C)c(=O)n3C)n2CCSc2nc3ccccc3s2)CC1`, 0.984%.

For the compound `Cc1ccc(CSc2nnc(-c3cccnc3)n2N)cc1`, the “hERG current change (%, negative = inhibition) at 10uM” value is given as 18%. The same measure for `Cc1ccc(NC(=O)C2CC(c3ccc(F)cc3)=NO2)cc1` (stereo not drawn): 17.6%; for `C=CCOc1ccc(/C=N/NC(=O)c2cc3c(OC)cc(OC)cc3[nH]2)cc1`: 19.6%; for `C/C=C/c1ccc(OCCOc2cc(C=O)ccc2OC)c(OC)c1`: 5.07%.

Consider `COc1ccc(N(CC(=O)N2CCCCCC2)S(C)(=O)=O)cc1Cl`, for which the “hERG current change (%, negative = inhibition) at 10uM” value was 8.46%. To `Cc1ccc(S(=O)(=O)Cc2ccc(C(=O)OCc3ccccc3)cc2)cc1` belongs -8.39%; to `Br.CCN1CCN(CC(=O)c2ccc(OC)cc2)CC1`, -2.05%. `O=C(CSc1cccc[n+]1[O-])Nc1ccc(C(F)(F)F)cc1[N+](=O)[O-]`: the “hERG current change (%, negative = inhibition) at 10uM” value was 4.31%. Regarding `CCCn1c(=O)c(C(=O)Nc2ccccc2C(=O)OC)c(O)c2ccccc21`, the “hERG current change (%, negative = inhibition) at 10uM” value came out at 5.91%.

In the case of `O=C(NS(=O)(=O)Oc1cccc(Cl)c1Cl)OC[C@@H]1CCCN2CCCCC12` (stereo partly drawn), the “hERG current change (%, negative = inhibition) at 10uM” value is 15.3%. The same measure for `CC(C)[C@H](NC(=O)c1ccco1)C(=O)OCC(=O)Nc1cccc(F)c1`: -23.8%; for `CCc1onc(C)c1C(=O)Nc1cc(C)ccc1OC`: 5.17%. The same measure for `Cc1ccc(-n2c(SCC(=O)NCc3ccco3)nc3c([nH]c4ccccc43)c2=O)cc1`: 7.27%; for `O=C(CN1CCC(O)(c2ccc(F)cc2)CC1)NCc1ccc(F)cc1`: -34.2%. The same measure for `COc1ccccc1OCC(=O)NCC1CCCCC1`: -11%. On to `O=C(Nc1ccncc1)c1ccc(Cl)c(S(=O)(=O)N2CCCC2)c1`, for which the “hERG current change (%, negative = inhibition) at 10uM” value was -42.3%. For `COc1ccccc1NC(=O)NC1(C(=O)N2CCCCC2)CCCCC1`, the “hERG current change (%, negative = inhibition) at 10uM” value turned out to be 10.8%.

As to `Cc1c(C2C(C#N)=C(N)OC3=C2C(=O)CCC3)cnn1C` (stereo not drawn), the “hERG current change (%, negative = inhibition) at 10uM” value is reported as 23.2%. On to `CCCCc1cc(=O)oc2cc(OCC(=O)NC3CCN(Cc4ccccc4)CC3)ccc12`, for which the “hERG current change (%, negative = inhibition) at 10uM” value is given as -61.1%. The same measure for `COc1ccc(N2CC(C(=O)N[C@@H](C)C(=O)NC3CCCCC3)CC2=O)cc1` (stereo partly drawn): 25.2%; for `c1ccc(-c2nc3ccccc3c3nc4ccccc4n23)cc1`: -5.59%. Turning to `O=C(CCC(=O)c1cccs1)NCC(=O)Nc1ccc(F)c(F)c1F`, the “hERG current change (%, negative = inhibition) at 10uM” value stood at 5.26%. The same measure for `COc1cc(NC(=O)c2cccs2)c(OC)cc1NC(=O)Nc1ccc(F)cc1`: 13.4%; for `COc1cc(C(=O)N2CCC(N3CCCCCC3)CC2)cc(OC)c1OC.O=C(O)C(=O)O`: -2.57%.

`O=C(CCN1C(=O)c2ccc([N+](=O)[O-])cc2C1=O)Nc1ccc(O)cc1C(=O)O`: the “hERG current change (%, negative = inhibition) at 10uM” value was 75.4%. In the case of `COc1ccc(NC(=O)C2CCCN(S(C)(=O)=O)C2)cc1` (stereo not drawn), the “hERG current change (%, negative = inhibition) at 10uM” value worked out at 24.5%. The same measure for `COc1cc(C(=O)NC(=S)NC(C)C)cc(OC)c1OC`: -17.3%. The same measure for `Cc1ccc(NC(=O)c2cnccn2)cc1S(=O)(=O)N(C)C`: 10.5%. As for `Cc1cccc(NS(=O)(=O)c2cccs2)n1`, the “hERG current change (%, negative = inhibition) at 10uM” value was determined as 14.8%. The same measure for `Cc1ccc(NC(=S)N(Cc2cccc(Br)c2)CC2CCC(C(=O)O)CC2)cc1Cl` (stereo not drawn): -1.2%; for `CN(C)CCN(CC1CCCN(Cc2ccccc2F)C1)C(=O)Cc1ccccc1F` (stereo not drawn): -0.047%. With `COc1ccccc1NC(=O)Cc1nnc(SCC(=O)c2ccccc2)n1C`, the “hERG current change (%, negative = inhibition) at 10uM” value is recorded as 16%. In the case of `COC(=O)C1=C(C)N(C)C(C)=C(C(=O)OC)C1c1cccc(Br)c1`, the “hERG current change (%, negative = inhibition) at 10uM” value was -13.4%. To `CCN1CCN(CCCNC(=O)c2ccc(/C=C3/Sc4ccccc4N(Cc4ccccc4F)C3=O)cc2)CC1` belongs -19.9%; to `CCC(C(=O)NCCN1CCOCC1)n1c2ccccc2c2nc(=O)cc(C)n21` (stereo not drawn), 23.1%. As for `COc1ccc(CCNC(=O)COc2ccc(N(C)S(=O)(=O)c3ccc(C)cc3)cc2)cc1OC`, the “hERG current change (%, negative = inhibition) at 10uM” value was -38.1%. The same measure for `O=C(COC(=O)c1ccccc1)NC12CC3CC(CC(C3)C1)C2`: 9.72%; for `CC(C)(C)SCCNS(=O)(=O)c1ccc(C#N)cc1`: -3.24%.

For `CC(=O)Nc1cccc(/C(C)=N/NC(=O)c2cccc(S(=O)(=O)N3CCOCC3)c2)c1`, the “hERG current change (%, negative = inhibition) at 10uM” value is on record as -1.18%.

Take `COc1ccc(NC(=O)C2C3C=CC(O3)C2C(=O)NCc2cccnc2)cc1` (stereo not drawn): the “hERG current change (%, negative = inhibition) at 10uM” value was -1.13%.

As to `COC(=O)c1ccc(NC(=O)CCN2CCN(Cc3ccccc3)CC2)cc1`, the “hERG current change (%, negative = inhibition) at 10uM” value was -58.6%.

With `O=C(O)c1cnc(-c2ccccc2)nc1C(F)(F)F`, the “hERG current change (%, negative = inhibition) at 10uM” value is on record as 24.3%.

In the case of `COc1ccc(-c2ccc(/C=C3\C(=O)N(c4ccccc4)N=C3c3ccccc3)o2)c([N+](=O)[O-])c1`, the “hERG current change (%, negative = inhibition) at 10uM” value is reported as 6.46%.

Consider `COc1ccc(OC)c(N/C=C/C(=O)c2ccc(OC)c(OC)c2)c1`, for which the “hERG current change (%, negative = inhibition) at 10uM” value was 11.5%. The same measure for `CCOc1ccc(CCNC(=O)COC(=O)c2sccc2C)cc1OCC`: 4%.

Regarding `CCC(C(=O)NCc1ccco1)n1nc(C)c2c(C)n(-c3ccc(C)cc3)nc2c1=O` (stereo not drawn), the “hERG current change (%, negative = inhibition) at 10uM” value was -58.9%. In the case of `O=C(Nc1ccc(F)cc1)c1ccc(S(=O)(=O)NCC2CCCO2)cc1` (stereo not drawn), the “hERG current change (%, negative = inhibition) at 10uM” value is listed as -1.24%.

Take `O=C(CN1CCN(Cc2cccc(Cl)c2)C1=O)NCC1CCCO1` (stereo not drawn): the “hERG current change (%, negative = inhibition) at 10uM” value was found to be 6.28%. To `COc1ccc(C(=O)C(CN2CCOCC2)c2ccccc2)cc1.Cl` (stereo not drawn) belongs -11.7%; to `CSCCC(C(=O)NCc1cccs1)N1C(=O)c2ccccc2C1=O` (stereo not drawn), -11.4%. To `Cn1c([N+](=O)[O-])cnc1N1CCN(c2nncs2)C1=O` belongs 4.86%; to `CCNC(=O)CC1SC(=Nc2ccc(C)cc2)NC1=O` (stereo not drawn), 13%. To `FC(F)(F)c1cc(-c2ccco2)nc(NCCc2ccccc2)n1` belongs 13%; to `O=C(c1ccco1)c1cn(CC(=O)N2CCCC2)c2ccccc12`, -0.491%. With `COC(=O)c1ccc(N2C(=O)Nc3ccccc3N2O)cc1`, the “hERG current change (%, negative = inhibition) at 10uM” value was 12.5%. With `CN(C)S(=O)(=O)c1cccc(NC(=O)CCCSc2ccccc2)c1`, the “hERG current change (%, negative = inhibition) at 10uM” value is reported as -35.7%.

Consider `CC(C)Cc1nnc(NC(=O)CS(=O)(=O)Cc2ccccc2)s1`, for which the “hERG current change (%, negative = inhibition) at 10uM” value is listed as 21.5%. The same measure for `Cc1ccccc1N1CC(O)(c2cccs2)[N+]2=C1CCCC2.[Br-]` (stereo not drawn): -25.9%. For the compound `COCCNC(=O)Cn1cc(C(=S)N2CCOCC2)c2ccccc21`, the “hERG current change (%, negative = inhibition) at 10uM” value is 20.5%. To `Cc1cc(Cl)ccc1N1C(=O)CC(NNC(=O)c2cccnc2)C1=O` (stereo not drawn) belongs -6.52%; to `COc1ccc(NC(=O)c2cc3ccccn3n2)cc1`, -10.7%; to `C/C(=N/NC(=O)CNC(=O)c1cccnc1)c1ccc(Cl)cc1`, -1.67%. In the case of `CCc1nnc2n1N=C(c1ccc(-c3cc(Cl)ccc3Cl)o1)CS2`, the “hERG current change (%, negative = inhibition) at 10uM” value worked out at 13%. With `O=C(c1cccc([N+](=O)[O-])c1)c1ccccn1`, the “hERG current change (%, negative = inhibition) at 10uM” value was -5.85%. To `Cc1c(CN2CCN(C)C(CCO)C2)[nH]c2c(Cl)cccc12` (stereo not drawn) belongs -42%; to `COc1ccc(CNC(=O)COC(=O)C(CCSC)NC(=O)c2ccco2)cc1OC` (stereo not drawn), -9.05%; to `CCn1c(SCC(=O)Nc2ccc3c(c2)OCCO3)nnc1-c1ccco1`, -25.9%. As to `CC(C)CCOC(=O)C[N+](C)(C)CCOC1CC2CCC1(C)C2(C)C.[Cl-]` (stereo not drawn), the “hERG current change (%, negative = inhibition) at 10uM” value is given as -16.3%. To `COc1cc(OC)cc(C(=O)N2CCCc3ccccc32)c1` belongs -9.15%.

Values taken from article PMC4336329 (PLoS ONE, 2015).
